Assay results reported in the supplement of paper PMC12217912.
The list shows a part of the results. The full chains were built here from the parent and the listed change. Inactive controls read about 0.05.

B1: TEV protease; numbered along this chain (parent)
chain: MGESLFKGPRDYNPISSSICHLTNESDGHTTSLYGIGFGPFIITNKHLFRRNNGTLVVQSLHGVFKVKDTTTLQQHLVDGRDMIIIRMPKDFPPFPQKLKFREPQREERICLVTTNFQTKSMSSMVSDTSCTFPSGDGIFWKHWIQTKDGQCGSPLVSTRDGFIVGIHSASNFTNTNNYFTSVPKNFMELLTNQEAQQWVSGWRLNADSVLWGGHKVFMVKPEEPFQPVKEATQL

Variants of: B1
Assay: raw area under fraction-flipped curve 0-4 h after induction (AUC4h, not background-subtracted), DNA-recorder readout of cleavage of the substrate (dimensionless); higher = more cleavage of the substrate by the protease variant
Settings: temperature: 34 °C; time window: 0-4 h after rhamnose induction
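Further: Bxb1 expression induced with 0.2% (w/v) L-rhamnose at OD600 near 0.5, cultures sampled hourly, flipped fraction per protease–substrate barcode pair counted by paired-end Illumina sequencing.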

Variant	area with substrate ENLYFQD	area with substrate ENLYFQE	area with substrate ENLYFQF	area with substrate ENLYFQG	area with substrate ENLYFQH	area with substrate ENLYFQI	area with substrate ENLYFQK	area with substrate ENLYFQL	area with substrate ENLYFQM	area with substrate ENLYFQN	area with substrate ENLYFQP	area with substrate ENLYFQR	area with substrate ENLYFQS	area with substrate ENLYFQV	area with substrate ENLYFQW	area with substrate ENLYFQT	area with substrate ENLYFQY	area with substrate ENLYFQQ
MGESLFKGPRDYNPISSSICHLTNESDGHTTSLYGIGFGPFIITMKHLFRRNNGTLVVQSLHGVFKVKDTTTLQQHLVDGRDMIIIRMPKDFPPFPQKLKFREPQREERICLVTTNFQTKSMSSMVSDTSCTFPSGDGIFWKHWIQTKDGQCGSPLVSTRDGFIVGIHSASNFTNTNNYFTSVPKNFMELLTNQEAQQWVSGWRLNADSVLWGGHKVFMVKPEEPFQPVKEATQL [N45M]	0.0537	0.0636	0.0519	0.0722	0.0541	0.0573	0.0641	0.0675	0.0539	0.0851	0.0562	0.0754	0.0648	0.0658	0.0618			
MGESLFKGPRDYNPISSSICHLTNESDGHTTSLYGIGFGPFIITNKHLFRRKNGTLVVQSLHGVFKVKDTTTLQQHLVDGRDMIIIRMPKDFPPFPQKLKFREPQREERICLVTTNFQTKSMSSMVSDTSCTFPSGDGIFWKHWIQTKDGQCGSPLVSTRDGFIVGIHSASNFTNTNNYFTSVPKNFMELLTNQEAQQWVSGWRLNADSVLWGGHKVFMVKPEEPFQPVKEATQL [N52K]	0.063	0.0638		0.0588		0.0577	0.0653	0.0596			0.0637		0.0707					
MGESLFKGPRDYNPISSSICHLTNESDGHTTSLYGIGFGPFIITNKHLFRRNNGTLVVQSLHGVFKVKDTTTLQQHLVDGRDMIIIRMPKDFPPFPQKLKFREPQREERICLVTTNFQTKSMSSMVSDTSCTFPSGDGIFWKHWIQTKDGQCGSPLVSTRDGFIVGIHSASNFTNTNNYFTSVPKNFMELLTNQEAQQWVSGWRLNADSVLWGGHKVFMVKPEEPIQPVKEATQL [F226I]		0.0723	0.112	0.101		0.046		0.0546		0.0916	0.0655	0.0827	0.113	0.0728	0.0784	0.076	0.0662	
MGESLFKGPRDYNPISSSICHLTNESDGHTTSLYGIGFGPFIITNKHLFRRNNGTLVVQSLHGVFKVKDTTTLQQHLVDGRDMIIIRMPKDFPPFPQKLKFREPQREERICLVTTNFQTKSMSSMVSDTSCTFPSGDGIFRKHWIQTKDGQCGSPLVSTRDGFIVGIHSASNFTNTNNYFTSVPKNFMELLTNQEAQQWVSGWRLNADSVLWGGHKVFMVKPEEPFQPVKEATQL [W141R]	0.0793		0.0512				0.0661	0.0543	0.0416	0.0575	0.0561	0.0438	0.0583		0.0664		0.0491	
MGESLFKGPRDYNPISSSICHLTNESDGHTTSLYGIGFGPFIITNKHLFRRNNGTLVVQSLHGVFKVKDTTTLQQHLVDGRDMIIIRMPKDFPPFPQKLIFREPQREERICLVTTNFQTKSMSSMVSDTSCTFPSGDGIFWKHWIQTKDGQCGSPLVSTRDGFIVGIHSASNFTNTNNYFTSVPKNFMELLTNQEAQQWVSGWRLNADSVLWGGHKVFMVKPEEPFQPVKEATQL [K100I]		0.045	0.0758			0.0702			0.0777		0.0464		0.102		0.07	0.0578		0.0665
MGESLFKGPRDYNPISSSICHLTNESDFHTTSLYGIGFGPFIITNKHLFRRNNGTLVVQSLHGVFKVKDTTTLQQHLVDGRDMIIIRMPKDFPPFPQKLKFREPQREERICLVTTNFQTKSMSSMVSDTSCTFPSGDGIFWKHWIQTKDGQCGSPLVSTRDGFIVGIHSASNFTNTNNYFTSVPKNFMELLTNQEAQQWVSGWRLNADSVLWGGHKVFMVKPEEPFQPVKEATQL [G28F]	0.0678		0.0744	0.0797	0.072	0.0574	0.0412			0.0694	0.0487	0.0588	0.0869		0.0578		0.0538	
MGESLFKGPRDYNPISSSICHLTNESDGHTTSLYGIGFGPFIITNKHLFRRNNGTLVVQSLHGVFKVKDTTTLQQHLVDGRDMIIIRMPKDFPPFPQGLKFREPQREERICLVTTNFQTKSMSSMVSDTSCTFPSGDGIFWKHWIQTKDGQCGSPLVSTRDGFIVGIHSASNFTNTNNYFTSVPKNFMELLTNQEAQQWVSGWRLNADSVLWGGHKVFMVKPEEPFQPVKEATQL [K98G]	0.0639			0.0995		0.0582	0.057	0.0638	0.0837	0.0699			0.104	0.0745		0.0636	0.0794	
MGESLFKGPRDYNPISSSICHLTNESDGHTTSLYGIGFGPFIITNKHLFRRNNGTLVVQSLHGVFKVKDTTTLQQHLVDGRDMIIIRMPKDFPPFPQKLKFREPQREERICLVTTNFQTKSMSSMVSDTSCTFPSGDGIFWKHWIQTKDGQCGSPLVSTRDGFIVGIHSASNFTNTNNYETSVPKNFMELLTNQEAQQWVSGWRLNADSVLWGGHKVFMVKPEEPFQPVKEATQL [F180E]	0.0612			0.0505		0.0518	0.054	0.0382			0.0557	0.0536	0.055		0.0503		0.069	
MGESLFKGPRDYNPISSSICHLTNESDGHTTSLYGIGFGPFIITNKHLFRRNNGTLVVQSLHGVFKVKDTTTLQQHWVDGRDMIIIRMPKDFPPFPQKLKFREPQREERICLVTTNFQTKSMSSMVSDTSCTFPSGDGIFWKHWIQTKDGQCGSPLVSTRDGFIVGIHSASNFTNTNNYFTSVPKNFMELLTNQEAQQWVSGWRLNADSVLWGGHKVFMVKPEEPFQPVKEATQL [L77W]		0.042	0.0465		0.0629	0.0613		0.0514	0.0719		0.0561	0.0601	0.0731		0.0843	0.0635		
